# Some of the results follow.
# B1: LcH (Lens culinaris), P02870 (protein)
# chain: TETTSFSITKFSPDQQNLIFQGDGYTGKEGLTLTKVSKETGGRALYSTPIHIWDRDTVNVANFVTNGSQVFRESPNGYNVADGFTFFIAPVDTKPQTGGGYLGVFYNGKEYDKTSQTVAVEFDTFYNAAWDPSNKERHIGIDVNSIKSVNTKSWNLQNGVTSYTLNEVVPLKDVVPEWVRIGFSATTGAEFAAQEVHSWSFNSQLGHTSKS
# Assays:
# Assay in all cases: glycan array binding signal (z-score within array); higher = stronger binding
# Settings in all cases: glycan notation: IUPAC condensed, linker removed
# Glc(a1-4)Glc = target: Glc(a1-4)Glc
# Outline: (§1)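 The binding signal is a Z-score computed within each array and averaged over linkers. Arrays of the same protein sequence at different concentrations or buffers were also averaged together. Data originate from 3228 arrays in the Consortium for Functional Glycomics database, kept only where the protein sequence was available.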
# Glc(a1-6)Glc(a1-6)Glc = target: Glc(a1-6)Glc(a1-6)Glc
# Outline: as §1
# Glc(b1-4)Glc = target: Glc(b1-4)Glc
# Outline: as §1
# Glc(b1-6)Glc = target: Glc(b1-6)Glc
# Outline: as §1
# GlcA(b1-3)Gal = target: GlcA(b1-3)Gal
# Outline: as §1
# GlcA(b1-3)GlcNAc = target: GlcA(b1-3)GlcNAc
# Outline: as §1
# GlcA(b1-6)Gal = target: GlcA(b1-6)Gal
# Outline: as §1
# [1] = target: GlcNAc(a1-3)Gal(b1-4)GlcNAc
# Outline: as §1
# [2] = target: GlcNAc(a1-4)Gal(b1-3)GlcNAc
# Outline: as §1
# [3] = target: GlcNAc(a1-4)Gal(b1-4)GalNAc
# Outline: as §1
# [4] = target: GlcNAc(a1-4)Gal(b1-4)GlcNAc
# Outline: as §1
# [5] = target: GlcNAc(a1-4)Gal(b1-4)GlcNAc(b1-3)Gal(b1-4)Glc
# Outline: as §1
# [6] = target: GlcNAc(a1-4)Gal(b1-4)GlcNAc(b1-3)Gal(b1-4)GlcNAc
# Outline: as §1
# [7] = target: GlcNAc(a1-4)Gal(b1-4)GlcNAc(b1-3)Gal(b1-4)GlcNAc(b1-3)Gal(b1-4)GlcNAc
# Outline: as §1
# [8] = target: GlcNAc(a1-4)Gal(b1-4)GlcNAc(b1-3)Gal(b1-4)[Fuc(a1-3)]GlcNAc(b1-3)Gal(b1-4)[Fuc(a1-3)]GlcNAc
# Outline: as §1
# [9] = target: GlcNAc(a1-6)Gal(b1-4)GlcNAc
# Outline: as §1
# [10] = target: GlcNAc(b1-2)Gal(b1-3)GalNAc
# Outline: as §1
# [11] = target: GlcNAc(b1-2)Man(a1-3)[GlcNAc(b1-2)Man(a1-6)]Man(b1-4)GlcNAc(b1-4)GlcNAc
# Outline: as §1
# [12] = target: GlcNAc(b1-2)Man(a1-3)[GlcNAc(b1-2)Man(a1-6)]Man(b1-4)GlcNAc(b1-4)[Fuc(a1-6)]GlcNAc
# Outline: as §1
# GlcNAc(b1-3)Gal = target: GlcNAc(b1-3)Gal
# Outline: as §1
# [13] = target: GlcNAc(b1-3)Gal(b1-3)GalNAc
# Outline: as §1
# GlcNAc(b1-3)Gal(b1-4)Glc = target: GlcNAc(b1-3)Gal(b1-4)Glc
# Outline: as §1
# [14] = target: GlcNAc(b1-3)Gal(b1-4)GlcNAc
# Outline: as §1
# [15] = target: GlcNAc(b1-3)Gal(b1-4)GlcNAc(b1-3)Gal(b1-4)GlcNAc
# Outline: as §1
# GlcNAc(b1-3)GalNAc = target: GlcNAc(b1-3)GalNAc
# Outline: as §1
# GlcNAc(b1-3)Man = target: GlcNAc(b1-3)Man
# Outline: as §1
# [16] = target: GlcNAc(b1-3)[GlcNAc(b1-4)][GlcNAc(b1-6)]GlcNAc
# Outline: as §1
# [17] = target: GlcNAc(b1-3)[GlcNAc(b1-6)]Gal(b1-4)GlcNAc
# Outline: as §1
# [18] = target: GlcNAc(b1-3)[GlcNAc(b1-6)]GalNAc
# Outline: as §1
# [19] = target: GlcNAc(b1-4)Gal(b1-4)GlcNAc
# Outline: as §1
# GlcNAc(b1-4)GlcNAc = target: GlcNAc(b1-4)GlcNAc
# Outline: as §1
# [20] = target: GlcNAc(b1-4)GlcNAc(b1-4)GlcNAc
# Outline: as §1
# [21] = target: GlcNAc(b1-4)GlcNAc(b1-4)GlcNAc(b1-4)GlcNAc(b1-4)GlcNAc
# Outline: as §1
# [22] = target: GlcNAc(b1-4)GlcNAc(b1-4)GlcNAc(b1-4)GlcNAc(b1-4)GlcNAc(b1-4)GlcNAc
# Outline: as §1
# [23] = target: GlcNAc(b1-4)[GlcNAc(b1-6)]GalNAc
# Outline: as §1
# [24] = target: GlcNAc(b1-6)Gal(b1-4)GlcNAc
# Outline: as §1
binder,measurement,setting,value
B1,glycan array binding signal (z-score),Glc(a1-4)Glc,0.046
same,glycan array binding signal (z-score),Glc(a1-6)Glc(a1-6)Glc,-0.098
same,glycan array binding signal (z-score),Glc(b1-4)Glc,-0.117
same,glycan array binding signal (z-score),Glc(b1-6)Glc,-0.116
same,glycan array binding signal (z-score),GlcA(b1-3)Gal,-0.111
same,glycan array binding signal (z-score),GlcA(b1-3)GlcNAc,-0.113
same,glycan array binding signal (z-score),GlcA(b1-6)Gal,-0.111
same,glycan array binding signal (z-score),[1],-0.119
same,glycan array binding signal (z-score),[2],-0.093
same,glycan array binding signal (z-score),[3],-0.044
same,glycan array binding signal (z-score),[4],-0.132
same,glycan array binding signal (z-score),[5],-0.067
same,glycan array binding signal (z-score),[6],-0.131
same,glycan array binding signal (z-score),[7],-0.063
same,glycan array binding signal (z-score),[8],-0.005
same,glycan array binding signal (z-score),[9],-0.102
same,glycan array binding signal (z-score),[10],-0.118
same,glycan array binding signal (z-score),[11],1.2
same,glycan array binding signal (z-score),[12],6.22
same,glycan array binding signal (z-score),GlcNAc(b1-3)Gal,-0.106
same,glycan array binding signal (z-score),[13],-0.13
same,glycan array binding signal (z-score),GlcNAc(b1-3)Gal(b1-4)Glc,-0.102
same,glycan array binding signal (z-score),[14],-0.134
same,glycan array binding signal (z-score),[15],-0.113
same,glycan array binding signal (z-score),GlcNAc(b1-3)GalNAc,-0.088
same,glycan array binding signal (z-score),GlcNAc(b1-3)Man,-0.124
same,glycan array binding signal (z-score),[16],-0.125
same,glycan array binding signal (z-score),[17],-0.119
same,glycan array binding signal (z-score),[18],-0.082
same,glycan array binding signal (z-score),[19],-0.097
same,glycan array binding signal (z-score),GlcNAc(b1-4)GlcNAc,-0.119
same,glycan array binding signal (z-score),[20],-0.107
same,glycan array binding signal (z-score),[21],-0.127
same,glycan array binding signal (z-score),[22],-0.139
same,glycan array binding signal (z-score),[23],-0.113
same,glycan array binding signal (z-score),[24],-0.122

# From the supplement of paper PMC8728848
